T1: RBFOX1 RRM (Homo sapiens, UniProt Q9NWB1 109-208)
T1 sequence: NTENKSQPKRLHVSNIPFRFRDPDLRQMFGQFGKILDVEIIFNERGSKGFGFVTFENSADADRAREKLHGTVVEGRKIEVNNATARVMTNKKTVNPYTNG

B1: AUACGCC (DNA:RNA)
RNA: GGGAGACCGGAAUUCAGAUUGUCCAUACGCCUUAAAUCCCGUCGUAGCCACCA
DNA 1: CAATCTGAATTCCGGTCTCCC
DNA 2: TGGTGGCTACGACGGGATT
B2: GUAUGGA (DNA:RNA)
RNA: B1 RNA with A25G, C28U, C30G, C31A
DNA 1: CAATCTGAATTCCGGTCTCCC
DNA 2: TGGTGGCTACGACGGGATT
B3: UAUGCCU (DNA:RNA)
RNA: B1 RNA with A25U, U26A, A27U, C28G, G29C, C31U
DNA 1: CAATCTGAATTCCGGTCTCCC
DNA 2: TGGTGGCTACGACGGGATT
B4: UAGUCCC (DNA:RNA)
RNA: B1 RNA with A25U, U26A, A27G, C28U, G29C
DNA 1: CAATCTGAATTCCGGTCTCCC
DNA 2: TGGTGGCTACGACGGGATT
B5: UCGAAAU (DNA:RNA)
RNA: GGGAGACCGGAAUUCAGAUUGUCCUCGAAAUUUAAAUCCCGUCGUAGCCACCA
DNA 1: CAATCTGAATTCCGGTCTCCC
DNA 2: TGGTGGCTACGACGGGATT
B6: GCGAUGU (DNA:RNA)
RNA: B5 RNA with U25G, A29U, A30G
DNA 1: CAATCTGAATTCCGGTCTCCC
DNA 2: TGGTGGCTACGACGGGATT
B7: CGUUGUG (DNA:RNA)
RNA: B1 RNA with A25C, U26G, A27U, C28U, C30U, C31G
DNA 1: CAATCTGAATTCCGGTCTCCC
DNA 2: TGGTGGCTACGACGGGATT
B8: CGGUAGG (DNA:RNA)
RNA: B5 RNA with U25C, C26G, A28U, A30G, U31G
DNA 1: CAATCTGAATTCCGGTCTCCC
DNA 2: TGGTGGCTACGACGGGATT
B9: ACGUCGA (DNA:RNA)
RNA: B5 RNA with U25A, A28U, A29C, A30G, U31A
DNA 1: CAATCTGAATTCCGGTCTCCC
DNA 2: TGGTGGCTACGACGGGATT
B10: CGACCGG (DNA:RNA)
RNA: B1 RNA with A25C, U26G, G29C, C30G, C31G
DNA 1: CAATCTGAATTCCGGTCTCCC
DNA 2: TGGTGGCTACGACGGGATT
B11: CUGUUUA (DNA:RNA)
RNA: B1 RNA with A25C, A27G, C28U, G29U, C30U, C31A
DNA 1: CAATCTGAATTCCGGTCTCCC
DNA 2: TGGTGGCTACGACGGGATT
B12: GAUGAUG (DNA:RNA)
RNA: B5 RNA with U25G, C26A, G27U, A28G, A30U, U31G
DNA 1: CAATCTGAATTCCGGTCTCCC
DNA 2: TGGTGGCTACGACGGGATT
B13: AUGGAAC (DNA:RNA)
RNA: B1 RNA with A27G, C28G, G29A, C30A
DNA 1: CAATCTGAATTCCGGTCTCCC
DNA 2: TGGTGGCTACGACGGGATT
B14: CGUCGUA (DNA:RNA)
RNA: B1 RNA with A25C, U26G, A27U, C30U, C31A
DNA 1: CAATCTGAATTCCGGTCTCCC
DNA 2: TGGTGGCTACGACGGGATT
B15: AAGAGAC (DNA:RNA)
RNA: B1 RNA with U26A, A27G, C28A, C30A
DNA 1: CAATCTGAATTCCGGTCTCCC
DNA 2: TGGTGGCTACGACGGGATT
B16: UAGGGCA (DNA:RNA)
RNA: B1 RNA with A25U, U26A, A27G, C28G, C31A
DNA 1: CAATCTGAATTCCGGTCTCCC
DNA 2: TGGTGGCTACGACGGGATT
B17: GGUAAUC (DNA:RNA)
RNA: B5 RNA with U25G, C26G, G27U, A30U, U31C
DNA 1: CAATCTGAATTCCGGTCTCCC
DNA 2: TGGTGGCTACGACGGGATT
B18: GUAACCG (DNA:RNA)
RNA: B1 RNA with A25G, C28A, G29C, C31G
DNA 1: CAATCTGAATTCCGGTCTCCC
DNA 2: TGGTGGCTACGACGGGATT
B19: AACCAAG (DNA:RNA)
RNA: B1 RNA with U26A, A27C, G29A, C30A, C31G
DNA 1: CAATCTGAATTCCGGTCTCCC
DNA 2: TGGTGGCTACGACGGGATT
B20: ACUGUUA (DNA:RNA)
RNA: B1 RNA with U26C, A27U, C28G, G29U, C30U, C31A
DNA 1: CAATCTGAATTCCGGTCTCCC
DNA 2: TGGTGGCTACGACGGGATT
B21: UUUCGAC (DNA:RNA)
RNA: B1 RNA with A25U, A27U, C30A
DNA 1: CAATCTGAATTCCGGTCTCCC
DNA 2: TGGTGGCTACGACGGGATT
B22: CUGUAAG (DNA:RNA)
RNA: B5 RNA with U25C, C26U, A28U, U31G
DNA 1: CAATCTGAATTCCGGTCTCCC
DNA 2: TGGTGGCTACGACGGGATT
B23: GGUCAUG (DNA:RNA)
RNA: B1 RNA with A25G, U26G, A27U, G29A, C30U, C31G
DNA 1: CAATCTGAATTCCGGTCTCCC
DNA 2: TGGTGGCTACGACGGGATT
B24: GGCUGCG (DNA:RNA)
RNA: B1 RNA with A25G, U26G, A27C, C28U, C31G
DNA 1: CAATCTGAATTCCGGTCTCCC
DNA 2: TGGTGGCTACGACGGGATT
B25: AACUAUA (DNA:RNA)
RNA: B1 RNA with U26A, A27C, C28U, G29A, C30U, C31A
DNA 1: CAATCTGAATTCCGGTCTCCC
DNA 2: TGGTGGCTACGACGGGATT
B26: UGGCGAA (DNA:RNA)
RNA: B5 RNA with C26G, A28C, A29G, U31A
DNA 1: CAATCTGAATTCCGGTCTCCC
DNA 2: TGGTGGCTACGACGGGATT
B27: CAGCCAG (DNA:RNA)
RNA: B5 RNA with U25C, C26A, A28C, A29C, U31G
DNA 1: CAATCTGAATTCCGGTCTCCC
DNA 2: TGGTGGCTACGACGGGATT
B28: AGGCGGG (DNA:RNA)
RNA: B1 RNA with U26G, A27G, C30G, C31G
DNA 1: CAATCTGAATTCCGGTCTCCC
DNA 2: TGGTGGCTACGACGGGATT
B29: AUCGAGU (DNA:RNA)
RNA: B1 RNA with A27C, C28G, G29A, C30G, C31U
DNA 1: CAATCTGAATTCCGGTCTCCC
DNA 2: TGGTGGCTACGACGGGATT
B30: UGACCGG (DNA:RNA)
RNA: B1 RNA with A25U, U26G, G29C, C30G, C31G
DNA 1: CAATCTGAATTCCGGTCTCCC
DNA 2: TGGTGGCTACGACGGGATT
B31: CUAAACG (DNA:RNA)
RNA: B1 RNA with A25C, C28A, G29A, C31G
DNA 1: CAATCTGAATTCCGGTCTCCC
DNA 2: TGGTGGCTACGACGGGATT

Substitutions are numbered along the chain they refer to; changes in the protein carry UniProt numbers. The list shows a part of the results.

The assay addresses T1, RBFOX1 RRM. Put plainly: EMSA; HiTS-Eq, 1 nM pool, 10 min; buffer printed only for the single-RNA assays: 10 mM Tris pH 7.5, 150 mM NaCl, 3.4 mM EDTA, 0.001% NP-40, 30 C. The settings on record: tags: His6 N-terminal (pET28a); label: 5' 32P. The gist of the method: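 Purified RbFox RRM, wild type or mutant, was incubated for 10 min in 50 µL with 1 nM of a 5′-radiolabelled RNA pool carrying 7 randomized nucleotides, whose flanks were annealed to DNA oligonucleotides, over a series of increasing protein concentrations. Unbound RNA was resolved on 8% native PAGE, cut out, reverse-transcribed, barcoded by PCR and sequenced on an Illumina HiSeq 2500. Relative association constants were derived from changes in read counts for each RNA species versus the control reaction and normalised to the cognate motif.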
Background: A gel shift assay detects complexes by their altered migration in electrophoresis.
Consider B1, for which the binding signal was 0.00461 KA relative to UGCAUGU.
For the molecule B2, the binding signal was 0.00526 KA relative to UGCAUGU.
Regarding B3, the binding signal was 0.00851 KA relative to UGCAUGU.
Consider B4, for which the binding signal was 0.00487 KA relative to UGCAUGU.
Regarding B5, the binding signal was 0.00586 KA relative to UGCAUGU.
For the molecule B6, the binding signal was 0.0167 KA relative to UGCAUGU.
As to B7, the binding signal is 0.0192 KA relative to UGCAUGU.
Under B8 stands 0.0112 KA relative to UGCAUGU.
Under B9 stands 0.00733 KA relative to UGCAUGU; under B10, 0.00747 KA relative to UGCAUGU; under B11, 0.0117 KA relative to UGCAUGU.
In the case of B12, the binding signal is 0.0173 KA relative to UGCAUGU.
Consider B13, for which the binding signal was 0.00687 KA relative to UGCAUGU.
Take B14: the binding signal was 0.0116 KA relative to UGCAUGU.
As for B15, the binding signal is 0.00451 KA relative to UGCAUGU.
With B16, the binding signal was 0.0071 KA relative to UGCAUGU.
Consider B17, for which the binding signal is 0.0076 KA relative to UGCAUGU.
Turning to B18, the binding signal was 0.00469 KA relative to UGCAUGU.
Consider B19, for which the binding signal was 0.00197 KA relative to UGCAUGU.
Turning to B20, the binding signal is 0.00577 KA relative to UGCAUGU.
The same measure for B21: 0.0169 KA relative to UGCAUGU; for B22: 0.0126 KA relative to UGCAUGU.
As to B23, the binding signal is 0.00886 KA relative to UGCAUGU.
As for B24, the binding signal was 0.0202 KA relative to UGCAUGU.
Take B25: the binding signal was 0.00166 KA relative to UGCAUGU.
With B26, the binding signal was 0.016 KA relative to UGCAUGU.
As for B27, the binding signal was 0.00949 KA relative to UGCAUGU.
As to B28, the binding signal was 0.0133 KA relative to UGCAUGU.
As to B29, the binding signal is 0.00452 KA relative to UGCAUGU.
The same measure for B30: 0.0112 KA relative to UGCAUGU.
On to B31, for which the binding signal was 0.0058 KA relative to UGCAUGU.

Source of the values: paper PMC9911399, “Two distinct binding modes provide the RNA-binding protein RbFox with extraordinary sequence specificity”.
